Measured values taken from article PMC4336329 (PLoS ONE, 2015).
Screen size: about 310,000 compounds; about 2,200 (0.71%) showed an effect of 50% or more. The effect is printed as a negative number. The list shows a part of the results.

target: human ether-à-go-go-related gene (hERG) potassium channel (human, UniProt Q12809); experiment: primary screen, population patch clamp on CHO cells stably expressing hERG
Sequence (Q12809 whole entry, looked up): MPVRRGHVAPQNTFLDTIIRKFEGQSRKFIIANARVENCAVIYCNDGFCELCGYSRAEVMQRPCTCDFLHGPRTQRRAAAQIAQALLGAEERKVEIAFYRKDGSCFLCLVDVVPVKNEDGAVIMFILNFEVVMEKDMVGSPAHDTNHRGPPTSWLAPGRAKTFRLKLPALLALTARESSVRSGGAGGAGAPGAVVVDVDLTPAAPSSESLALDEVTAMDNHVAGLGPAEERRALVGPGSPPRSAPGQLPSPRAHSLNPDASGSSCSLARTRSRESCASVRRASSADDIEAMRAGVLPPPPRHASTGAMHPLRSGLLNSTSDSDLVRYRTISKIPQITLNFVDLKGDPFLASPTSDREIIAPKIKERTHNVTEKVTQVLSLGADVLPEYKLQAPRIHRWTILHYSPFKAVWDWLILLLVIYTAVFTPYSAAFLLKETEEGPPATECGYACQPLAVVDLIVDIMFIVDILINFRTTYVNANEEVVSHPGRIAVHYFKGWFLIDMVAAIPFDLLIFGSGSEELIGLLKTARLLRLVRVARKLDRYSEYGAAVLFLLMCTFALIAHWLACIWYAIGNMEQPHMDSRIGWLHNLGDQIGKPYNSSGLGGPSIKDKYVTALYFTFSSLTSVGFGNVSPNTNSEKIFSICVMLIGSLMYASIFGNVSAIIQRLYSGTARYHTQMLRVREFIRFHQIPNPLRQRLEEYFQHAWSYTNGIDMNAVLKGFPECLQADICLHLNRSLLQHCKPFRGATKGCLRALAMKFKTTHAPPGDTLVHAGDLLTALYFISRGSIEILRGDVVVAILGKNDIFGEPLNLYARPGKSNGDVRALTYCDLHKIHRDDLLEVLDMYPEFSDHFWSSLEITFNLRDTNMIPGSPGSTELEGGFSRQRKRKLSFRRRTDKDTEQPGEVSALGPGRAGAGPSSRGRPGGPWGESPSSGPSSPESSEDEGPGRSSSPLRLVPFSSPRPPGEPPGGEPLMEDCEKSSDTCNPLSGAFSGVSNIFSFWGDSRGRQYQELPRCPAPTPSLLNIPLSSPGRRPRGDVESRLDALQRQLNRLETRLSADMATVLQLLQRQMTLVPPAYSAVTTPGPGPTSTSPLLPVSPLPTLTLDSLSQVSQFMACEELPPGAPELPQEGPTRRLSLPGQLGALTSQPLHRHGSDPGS

Row | SMILES | hERG current change (%, negative = inhibition) at 1uM
1 | Cc1ccc(S(=O)(=O)CC(=O)N(C)C)cc1 | 10.9%
2 | COc1cc2c3c([nH]c2cc1F)C(=O)NCC3 | 12.6%
3 | O=C(CN1CCN(c2ccccc2F)CC1)c1c[nH]c2ccc(F)cc12 | -9.17%
4 | O=C(COC(=O)c1ccccc1-n1cnnn1)c1ccccc1 | 5.7%
5 | O=C(NCC1CCCO1)c1ccc(NC(=O)c2ccc(Br)cc2)cc1 (stereo not drawn) | 15%
6 | CCN(CC)C(=O)CN(c1cc2c(cc1OC)oc1ccccc12)S(=O)(=O)c1ccccc1 | 5.49%
7 | CCSCc1nnc(SCC(=O)Nc2nccs2)n1CC | 7.03%
8 | O=C(CCl)N(c1ccccc1)c1c[nH]c2ccccc12 | 9.71%
9 | CSCC[C@H](NC(=O)C1=NN(c2c(F)c(F)cc(F)c2F)C(=O)CC1)c1nc2ccccc2[nH]1 | -6.71%
10 | CC1(C)Cc2c(sc3nc(-c4ccccc4Cl)n(N)c(=O)c23)CO1 | 10%
11 | Cc1nc2ccccc2n1C(=O)N1CCOCC1 | 10.3%
12 | Cc1cc(Nc2cc(Cl)cc(Cl)c2)nc(N)n1 | 1.78%
13 | CC(C)(C)c1ccc(C(=O)N/N=C/c2ccc(OCCCF)cc2)cc1 | 7.1%
14 | NS(=O)(=O)c1ccc(NC(NC(=O)c2cccnc2)C(Cl)(Cl)Cl)cc1 (stereo not drawn) | 8.45%
15 | CCOC(=O)c1cc(-c2ccc(OC)cc2)n[nH]1 | 11.4%
16 | CSc1ccccc1NC(=O)c1cc2c(=O)n3ccccc3nc2s1 | 2.55%
17 | Cn1c(=O)n(C)c2cc(/C=N/n3cnnc3)ccc21 | 7.06%
18 | Cc1cc(OCC(=O)Nc2ccccc2N2CCCCC2)ccc1C(C)C | 10%
19 | CCCc1cc(=O)oc2c(C)c(OCC(=O)Nc3ccccn3)ccc12 | 6.71%
20 | Cc1ccc(S(=O)(=O)N2CCC(C(=O)NCCCN3CCCC3=O)CC2)cc1C | 5.98%
21 | CCCOc1cc(NCc2ccccc2)c2ncn(C(C)C)c2c1 | 6.72%
22 | COc1ccccc1OCC#CCN1CCCCCC1.O=C(O)C(=O)O | 10.8%
23 | Cc1ncc(CO)c(/C=N/N=C/c2ccccc2O)c1O | 11.4%
24 | CCOc1ccc(NC(=O)CN2C(=O)CSC(C)C2=O)cc1 (stereo not drawn) | 16.1%
25 | Cl.Clc1ccccc1CN1CCNCC1 | 15.1%
26 | c1ccc(C2(c3ccccc3)OCC(Cn3cncn3)O2)cc1 (stereo not drawn) | 4.74%
27 | O=C(NCCc1ccccc1)c1ccc(Br)o1 | -0.034%
